# Results from the supplement of paper PMC8728848.
# Some of the results follow.
# Legend:
# Assay in all cases: glycan array binding signal (z-score within array); higher = stronger binding
# Details in all cases: glycan notation: IUPAC condensed, linker removed
# Fuc(a1-2)Gal = biological target: Fuc(a1-2)Gal
# Outline: (§1)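 The binding signal is a Z-score computed within each array. Data were drawn from 3228 arrays in the Consortium for Functional Glycomics database, restricted to those with a known protein sequence. Scores were averaged over arrays of the same protein sequence at different concentrations or buffers, and over linkers, and negative values can be taken as non-binding.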
# Fuc(a1-2)Gal(b1-3)GalNAc = biological target: Fuc(a1-2)Gal(b1-3)GalNAc
# Outline: as §1
# [1] = biological target: Fuc(a1-2)Gal(b1-3)GalNAc(a1-3)[Fuc(a1-2)]Gal(b1-4)Glc
# Outline: as §1
# [2] = biological target: Fuc(a1-2)Gal(b1-3)GalNAc(a1-3)[Fuc(a1-2)]Gal(b1-4)GlcNAc
# Outline: as §1
# [3] = biological target: Fuc(a1-2)Gal(b1-3)GalNAc(b1-3)Gal
# Outline: as §1
# [4] = biological target: Fuc(a1-2)Gal(b1-3)GalNAc(b1-3)Gal(a1-4)Gal(b1-4)Glc
# Outline: as §1
# [5] = biological target: Fuc(a1-2)Gal(b1-3)GalNAc(b1-4)[Neu5Ac(a2-3)]Gal(b1-4)Glc
# Outline: as §1
# Fuc(a1-2)Gal(b1-3)GlcNAc = biological target: Fuc(a1-2)Gal(b1-3)GlcNAc
# Outline: as §1
# [6] = biological target: Fuc(a1-2)Gal(b1-3)GlcNAc(b1-2)Man(a1-3)[Fuc(a1-2)Gal(b1-3)GlcNAc(b1-2)Man(a1-6)]Man(b1-4)GlcNAc(b1-4)GlcNAc
# Outline: as §1
# [7] = biological target: Fuc(a1-2)Gal(b1-3)GlcNAc(b1-2)Man(a1-3)[Fuc(a1-2)Gal(b1-3)GlcNAc(b1-2)Man(a1-6)]Man(b1-4)GlcNAc(b1-4)[Fuc(a1-6)]GlcNAc
# Outline: as §1
# [8] = biological target: Fuc(a1-2)Gal(b1-3)GlcNAc(b1-3)Gal(b1-4)Glc
# Outline: as §1
# [9] = biological target: Fuc(a1-2)Gal(b1-3)GlcNAc(b1-3)GalNAc
# Outline: as §1
# [10] = biological target: Fuc(a1-2)Gal(b1-3)GlcNAc(b1-3)[Fuc(a1-2)Gal(b1-3)GlcNAc(b1-6)]GalNAc
# Outline: as §1
# [11] = biological target: Fuc(a1-2)Gal(b1-3)GlcNAc(b1-3)[Gal(b1-4)GlcNAc(b1-6)]Gal(b1-4)Glc
# Outline: as §1
# [12] = biological target: Fuc(a1-2)Gal(b1-3)GlcNAc(b1-3)[Neu5Ac(a2-6)Gal(b1-4)GlcNAc(b1-6)]Gal(b1-4)Glc
# Outline: as §1
# [13] = biological target: Fuc(a1-2)Gal(b1-3)GlcNAc6S
# Outline: as §1
# [14] = biological target: Fuc(a1-2)Gal(b1-3)[Fuc(a1-4)]GlcNAc
# Outline: as §1
# [15] = biological target: Fuc(a1-2)Gal(b1-3)[Fuc(a1-4)]GlcNAc(b1-2)Man(a1-3)[Fuc(a1-2)Gal(b1-3)[Fuc(a1-4)]GlcNAc(b1-2)Man(a1-3)]Man(b1-4)GlcNAc(b1-4)GlcNAc
# Outline: as §1
# [16] = biological target: Fuc(a1-2)Gal(b1-3)[Fuc(a1-4)]GlcNAc(b1-2)Man(a1-3)[Fuc(a1-2)Gal(b1-3)[Fuc(a1-4)]GlcNAc(b1-2)Man(a1-6)]Man(b1-4)GlcNAc(b1-4)[Fuc(a1-6)]GlcNAc(b1-4)[Fuc(a1-6)]GlcNAc
# Outline: as §1
# [17] = biological target: Fuc(a1-2)Gal(b1-3)[Fuc(a1-4)]GlcNAc(b1-3)[Fuc(a1-3)[Gal(b1-4)]GlcNAc(b1-6)]Gal(b1-4)Glc
# Outline: as §1
# [18] = biological target: Fuc(a1-2)Gal(b1-3)[Fuc(a1-4)]GlcNAc(b1-3)[Gal(b1-4)GlcNAc(b1-6)]Gal(b1-4)Glc
# Outline: as §1
# [19] = biological target: Fuc(a1-2)Gal(b1-4)Fuc(a1-3)]GlcNAc(b1-2)Man(a1-3)[Fuc(a1-2)Gal(b1-4)[Fuc(a1-3)]GlcNAc(b1-2)Man(a1-6)]Man(b1-4)GlcNAc(b1-4)GlcNAc
# Outline: as §1
# Fuc(a1-2)Gal(b1-4)Glc = biological target: Fuc(a1-2)Gal(b1-4)Glc
# Outline: as §1
# Fuc(a1-2)Gal(b1-4)Glc6S = biological target: Fuc(a1-2)Gal(b1-4)Glc6S
# Outline: as §1
# Fuc(a1-2)Gal(b1-4)GlcNAc = biological target: Fuc(a1-2)Gal(b1-4)GlcNAc
# Outline: as §1
# [20] = biological target: Fuc(a1-2)Gal(b1-4)GlcNAc(b1-2)Man
# Outline: as §1
# [21] = biological target: Fuc(a1-2)Gal(b1-4)GlcNAc(b1-2)Man(a1-3)[Fuc(a1-2)Gal(b1-4)GlcNAc(b1-2)Man(a1-6)]Man(b1-4)GlcNAc(b1-4)GlcNAc
# Outline: as §1
# [22] = biological target: Fuc(a1-2)Gal(b1-4)GlcNAc(b1-2)Man(a1-3)[Fuc(a1-2)Gal(b1-4)GlcNAc(b1-2)Man(a1-6)]Man(b1-4)GlcNAc(b1-4)[Fuc(a1-6)]GlcNAc
# Outline: as §1
# [23] = biological target: Fuc(a1-2)Gal(b1-4)GlcNAc(b1-2)[Fuc(a1-2)Gal(b1-4)GlcNAc(b1-4)]Man(a1-3)[Fuc(a1-2)Gal(b1-4)GlcNAc(b1-2)Man(a1-6)]Man(b1-4)GlcNAc(b1-4)GlcNAc
# Outline: as §1
# [24] = biological target: Fuc(a1-2)Gal(b1-4)GlcNAc(b1-3)Gal(b1-4)GlcNAc
# Outline: as §1
# [25] = biological target: Fuc(a1-2)Gal(b1-4)GlcNAc(b1-3)Gal(b1-4)GlcNAc(b1-2)Man(a1-3)[Fuc(a1-2)Gal(b1-4)GlcNAc(b1-3)Gal(b1-4)GlcNAc(b1-2)Man(a1-6)]Man(b1-4)GlcNAc(b1-4)GlcNAc
# Outline: as §1
# [26] = biological target: Fuc(a1-2)Gal(b1-4)GlcNAc(b1-3)Gal(b1-4)GlcNAc(b1-3)Gal(b1-4)GlcNAc
# Outline: as §1
# [27] = biological target: Fuc(a1-2)Gal(b1-4)GlcNAc(b1-3)GalNAc
# Outline: as §1
# [28] = biological target: Fuc(a1-2)Gal(b1-4)GlcNAc(b1-3)[Fuc(a1-2)Gal(b1-4)GlcNAc(b1-6)]GalNAc
# Outline: as §1
# [29] = biological target: Fuc(a1-2)Gal(b1-4)GlcNAc(b1-3)[Fuc(a1-3)[Gal(b1-4)]GlcNAc(b1-6)]Gal(b1-4)Glc
# Outline: as §1
# [30] = biological target: Fuc(a1-2)Gal(b1-4)GlcNAc(b1-6)GalNAc
# Outline: as §1
# [31] = biological target: Fuc(a1-2)Gal(b1-4)GlcNAc6S
# Outline: as §1
# [32] = biological target: Fuc(a1-2)Gal(b1-4)[Fuc(a1-3)]GlcNAc
# Outline: as §1
# [33] = biological target: Fuc(a1-2)Gal(b1-4)[Fuc(a1-3)]GlcNAc(b1-2)Man(a1-3)[Fuc(a1-2)Gal(b1-4)[Fuc(a1-3)]GlcNAc(b1-2)Man(a1-6)]Man(b1-4)GlcNAc(b1-4)[Fuc(a1-6)]GlcNAc
# Outline: as §1
# [34] = biological target: Fuc(a1-2)Gal(b1-4)[Fuc(a1-3)]GlcNAc(b1-2)[Fuc(a1-2)Gal(b1-4)[Fuc(a1-3)]GlcNAc(b1-4)]Man(a1-3)[Fuc(a1-2)Gal(b1-4)[Fuc(a1-3)]GlcNAc(b1-2)Man(a1-6)]Man(b1-4)GlcNAc(b1-4)GlcNAc
# Outline: as §1
# [35] = biological target: Fuc(a1-2)Gal(b1-4)[Fuc(a1-3)]GlcNAc(b1-3)Gal(b1-4)[Fuc(a1-3)]GlcNAc
# Outline: as §1
# [36] = biological target: Fuc(a1-2)Gal(b1-4)[Fuc(a1-3)]GlcNAc(b1-3)Gal(b1-4)[Fuc(a1-3)]GlcNAc(b1-3)Gal(b1-4)[Fuc(a1-3)]GlcNAc
# Outline: as §1
# [37] = biological target: Fuc(a1-2)Gal(b1-4)[Fuc(a1-3)]GlcNAc(b1-3)GalNAc
# Outline: as §1
# [38] = biological target: Fuc(a1-2)Gal(b1-4)[Fuc(a1-3)]GlcNAc(b1-3)[Neu5Ac(a2-6)Gal(b1-4)GlcNAc(b1-6)]Gal(b1-4)Glc
# Outline: as §1
# [39] = biological target: Fuc(a1-2)Gal3S(b1-4)GlcNAc
# Outline: as §1
binder,measurement,setting,value
"LSL-150 (Laetiporus sulphureus), Q7Z8V1 (protein) MTDIYIPPEGLYFRLLGFASRQVIFARNSPSPDVGLSPVNDQATDQYFSLIYGTGEHAGLYAIKSKATGKVLFSRRPAEPYVGQIDGDGRYPDNWFKIEPGKTYLSKYFRLVQPSTGTALVSRTHLQPYFWNHPQTEVFDDQYFTFLFEDHHHHHH",glycan array binding signal (z-score),Fuc(a1-2)Gal,-0.212
same,glycan array binding signal (z-score),Fuc(a1-2)Gal(b1-3)GalNAc,-0.206
same,glycan array binding signal (z-score),[1],-0.208
same,glycan array binding signal (z-score),[2],-0.208
same,glycan array binding signal (z-score),[3],-0.209
same,glycan array binding signal (z-score),[4],-0.214
same,glycan array binding signal (z-score),[5],-0.2
same,glycan array binding signal (z-score),Fuc(a1-2)Gal(b1-3)GlcNAc,-0.201
same,glycan array binding signal (z-score),[6],-0.195
same,glycan array binding signal (z-score),[7],-0.202
same,glycan array binding signal (z-score),[8],-0.205
same,glycan array binding signal (z-score),[9],-0.209
same,glycan array binding signal (z-score),[10],-0.197
same,glycan array binding signal (z-score),[11],-0.19
same,glycan array binding signal (z-score),[12],-0.2
same,glycan array binding signal (z-score),[13],-0.196
same,glycan array binding signal (z-score),[14],-0.213
same,glycan array binding signal (z-score),[15],-0.191
same,glycan array binding signal (z-score),[16],-0.2
same,glycan array binding signal (z-score),[17],-0.213
same,glycan array binding signal (z-score),[18],-0.203
same,glycan array binding signal (z-score),[19],-0.201
same,glycan array binding signal (z-score),Fuc(a1-2)Gal(b1-4)Glc,-0.211
same,glycan array binding signal (z-score),Fuc(a1-2)Gal(b1-4)Glc6S,-0.195
same,glycan array binding signal (z-score),Fuc(a1-2)Gal(b1-4)GlcNAc,-0.209
same,glycan array binding signal (z-score),[20],-0.193
same,glycan array binding signal (z-score),[21],-0.206
same,glycan array binding signal (z-score),[22],-0.202
same,glycan array binding signal (z-score),[23],-0.212
same,glycan array binding signal (z-score),[24],-0.173
same,glycan array binding signal (z-score),[25],-0.103
same,glycan array binding signal (z-score),[26],0.832
same,glycan array binding signal (z-score),[27],-0.197
same,glycan array binding signal (z-score),[28],-0.206
same,glycan array binding signal (z-score),[29],-0.2
same,glycan array binding signal (z-score),[30],-0.198
same,glycan array binding signal (z-score),[31],-0.202
same,glycan array binding signal (z-score),[32],-0.204
same,glycan array binding signal (z-score),[33],-0.208
same,glycan array binding signal (z-score),[34],-0.208
same,glycan array binding signal (z-score),[35],-0.21
same,glycan array binding signal (z-score),[36],-0.198
same,glycan array binding signal (z-score),[37],-0.201
same,glycan array binding signal (z-score),[38],-0.204
same,glycan array binding signal (z-score),[39],-0.205
